# From PubChem BioAssay AID1347073 (National Center for Advancing Translational Sciences (NCATS), 2019)
# Hit rate of the full screen: of about 45,000 compounds, about 200 (0.44%) were called active. The call rests on the fitted dose curve; in most records, active means well fitted activation curve with a large enough effect; inconclusive means small, poorly fitted or top-dose-only effect; inactive means no such curve, though single readings can be large or run the other way. Inconclusive results, whose numbers are uncertain, are shown. Where the call is inconclusive, the potency comes from a doubtful curve fit.
# Assay: qHTS of TDP-43 Inhibitors: NCGC Sytravon Library Screen; further: nearly all actives have a fitted effect of over 55% in size; on growth rescue (activation): 0% is about no effect
# Details: yeast TDP-43 toxicity rescue, BacTiter-Glo growth, 24 h; growth rescue (activation): at 46.1 µM (top of the series)
# From the text: The goal of this project is to identify new chemical probes capable of reversing the toxicity associated with TDP-43 which is associated with frontotemporal lobar degeneration and amyotrophic lateral sclerosis. These compounds will provide a complementary approach to deciphering the tangled mechanisms of toxicity and protection that we have uncovered through genome-wide genetic screens and are beginning to uncover in a large-scale proteomics analysis with mass spectroscopy. To this end, a miniaturized assay was developed to be screened against the Molecular Libraries Small Molecule Repository (MLSMR) to discover TDP-43 inhibitors. Please note that in the set-up this yeast-based assay compounds that inhibit as TDP-43, have a read-out as activators. NIH Chemical Genomics Center [NCGC] NIH Molecular Libraries Probe Centers Network [MLPCN] Assay Submitter (PI): Susan Lindquist, Whitehead Institute/MIT MLPCN Grant: R21 NS060957
# Dispense 2.5 microL yeast galactose medium per 1536-well plate, pin compound, dispense 2.5 microL TDP-43 expressing yeast in galactose medium at OD600=0.02 (pregrown in raffinose medium to mid-log phase) per well, incubate for 24 hr at 30 deg C, and cell growth will be measured using 5 microL of Bactiter/Glo reagent to entire plate and read using Luminescence Protocol in ViewLux.
# Potency means the concentration at half of the fitted maximal effect; tags describe the fitted curve by direction and shape.
Structure (SMILES),Potency,growth rescue (activation)
Cc1ccc(N)c(C(=O)c2ccc(Br)cc2)c1,"inconclusive: 14.1 µM [activator, partial curve, poor fit]",
Cn1cccc1/C=C1\C(=O)NC(=O)N(Cc2ccccc2)C1=O,"inconclusive: 35.5 µM [activator, single point]",
C[C@]12CCC3C(CC[C@H]4C[C@H](O)CC[C@]34C)C1C[C@H](O)[C@@H]2O (stereo partly specified),"inconclusive: 35.5 µM [activator, single point]",
CCCCCc1nc2c(c(=O)c3ccccc3n2C)c(=O)n1C1CCCCCC1,"inconclusive: 20 µM [activator, partial curve, poor fit]",
CCOC(=O)c1c(C)n(C(C)C)c2ccc(OC)cc12,"inconclusive: 12.6 µM [activator, partial curve, poor fit]",
COc1ccc(NC(=O)c2cn(CCC#N)nc2-c2cccc([N+](=O)[O-])c2)cc1,"inconclusive: 35.5 µM [activator, partial curve, poor fit]",
CCOc1cc(/C=C2\C(=O)NC(=O)N(C)C2=O)cc([N+](=O)[O-])c1O,"inconclusive: 20 µM [activator, single point]",
Cc1cccc(-n2c(-c3ccco3)nc3ccccc3c2=O)c1C,"inconclusive: 17.8 µM [activator, partial curve, poor fit]",
CC(=NCCC(c1ccccc1)c1ccccc1)c1c(O)n(C)c(=O)n(C)c1=O,"inconclusive: 17.8 µM [activator, single point]",
COc1ccc(-n2c(-c3ccccc3)nc3ccccc3c2=O)cc1,"inconclusive: 11.2 µM [activator, single point]",
CN(C)c1ccc(-[n+]2c(-c3ccccc3)cc(-c3ccccc3)cc2-c2ccccc2)cc1,"inconclusive: 31.6 µM [activator, single point]",
O=C(c1ccco1)c1cn(Cc2ccccc2)c2ccccc12,"inconclusive: 12.6 µM [activator, partial curve, poor fit]",
COc1cc(-n2c(=S)[nH]c3ccc(C)cc3c2=O)c(Cl)cc1Cl,"inconclusive: 12.6 µM [activator, partial curve, poor fit]",
CC(=O)Nc1ccccc1C(=O)OCc1ccc(F)cc1,"inconclusive: 12.6 µM [activator, partial curve, poor fit]",
CCCCCCN=C(C)c1c(O)n(CCCC)c(=O)[nH]c1=O,"inconclusive: 31.6 µM [activator, single point]",
C[C@]12CCC(=O)C=C1CCC1C2CC[C@@]2(C)C1CC[C@]2(C)O (stereo partly specified),,inconclusive: 69.1% [activator]
Nc1ccc(Cl)cc1C(=O)c1ccccc1,"inconclusive: 28.2 µM [activator, partial curve, poor fit]",
O=[N+]([O-])c1ccc(N2CCCC2)c(F)c1Br,"inconclusive: 3.55 µM [activator, full curve]",
C[C@]12CC[C@H](OC(=O)CCC(=O)O)CC1=CCC1C2CC[C@@]2(C)C1CC[C@@H]2OC(=O)CCC(=O)O (stereo partly specified),,inconclusive: 47.6% [activator]
C=CCN1C(=O)/C(=C/c2cccs2)C(=O)NC1=S,"inconclusive: 20 µM [activator, partial curve, poor fit]",
CCc1ccc2nc(N3CCC(C(=O)N4CCC5(CC4)OCCO5)CC3)sc2c1,"inconclusive: 12.6 µM [activator, partial curve, poor fit]",
Cc1ccc2c(=O)n(-c3cccc(Cl)c3)c(=O)[nH]c2c1,"inconclusive: 12.6 µM [activator, partial curve]",
CC(C)CC(NC(=O)CCCNC(=O)CCC(=O)OC1O[C@H]2OC3(C)CC[C@H]4[C@H](C)CCC(C1C)C24OO3)C(=O)O (stereo partly specified),"inconclusive: 12.6 µM [activator, partial curve, poor fit]",

Structure (SMILES),Potency,growth rescue (activation)
C[C@]12CCC3C(CC[C@H]4C[C@@H](O)CC[C@]34C)C1C[C@@H](O)C2=O (stereo partly specified),"inconclusive: 15.8 µM [activator, partial curve, poor fit]",
CC1C(OC(=O)CCC(=O)NC(C)(C)CO)O[C@H]2OC3(C)CC[C@H]4[C@H](C)CCC1C24OO3 (stereo partly specified),"inconclusive: 22.4 µM [activator, partial curve, poor fit]",
Nc1c(C(=O)NC2CCCC2)c2nc3ccccc3nc2n1CC1CCCO1 (stereo unspecified),"inconclusive: 20 µM [activator, partial curve, poor fit]",
C[C@]12CCC3C(CC[C@@H]4CC(=O)CC[C@]34C)C1CC[C@@H]2O (stereo partly specified),"inconclusive: 12.6 µM [activator, partial curve, poor fit]",
Cc1ccccc1N1C(=O)NC(=O)/C(=C\c2ccc3c(c2)CCCN3Cc2ccccc2)C1=O,"inconclusive: 10 µM [activator, partial curve, poor fit]",
Cc1ccc(OCCOc2cccc(C=C3C(=O)NC(=O)NC3=O)c2)c(C)c1,"inconclusive: 17.8 µM [activator, single point]",
CCOc1ccc(-c2cc(C(=O)N3CCC4(CC3)OCCO4)c3ccccc3n2)cc1,"inconclusive: 35.5 µM [activator, single point]",
Cc1cc(C(=O)OCC(=O)Nc2ccccc2F)c(C)n1C1CC1,"inconclusive: 11.2 µM [activator, partial curve, poor fit]",
COc1ccc(C(O)P(=O)(Oc2ccccc2)Oc2ccccc2)cc1 (stereo unspecified),"inconclusive: 20 µM [activator, single point]",
O=C(Cc1ccccc1)NC(Cc1ccc(Cl)cc1)C(=O)O (stereo unspecified),"inconclusive: 35.5 µM [activator, single point]",
CCC1(C(=O)c2ccc(C)cc2)C2c3ccccc3OC(=O)C21C(=O)O (stereo unspecified),"inconclusive: 35.5 µM [activator, single point]",
CC(C)C(=O)c1cn(Cc2ccccc2C#N)c2ccccc12,"inconclusive: 25.1 µM [activator, single point]",
Cc1c(C=O)c2ccccc2n1Cc1cccc(F)c1,"inconclusive: 22.4 µM [activator, partial curve, poor fit]",
O=Cc1cn(CCCOc2ccccc2)c2ccccc12,"inconclusive: 12.6 µM [activator, partial curve, poor fit]",
CCC(=NCCOc1ccc(Cl)cc1)c1c(O)n(C)c(=O)n(C)c1=O,"inconclusive: 35.5 µM [activator, partial curve, poor fit]",
CC(=NCCc1ccccc1)c1c(O)n(C)c(=O)n(C)c1=O,"inconclusive: 10 µM [activator, partial curve, poor fit]",
CC1=NN(Cc2c[nH]c3ccccc23)C(C)(C)C1,"inconclusive: 14.1 µM [activator, single point]",
CCN(CC)c1ccc(/C=N/c2sc3c(c2C#N)C2CCN3CC2)c(O)c1,"inconclusive: 10 µM [activator, partial curve]",
O=P(Nc1cccc(Cl)c1)(Oc1ccccc1)Oc1ccccc1,"inconclusive: 35.5 µM [activator, single point]",
C[C@H]1[C@H](OC(=O)CCC(=O)NCc2ccc(C(=O)O)cc2)O[C@@H]2O[C@@]3(C)CC[C@H]4[C@H](C)CC[C@@H]1C24OO3,"inconclusive: 17.8 µM [activator, partial curve, poor fit]",
CCOC(=O)c1nc2ccccc2c(=O)n1-c1ccc(C)cc1C,"inconclusive: 15.8 µM [activator, single point]",
C[C@]12CCCCC1=CC(=O)C1C2CC[C@@]2(C)C1C[C@@H](F)[C@@H]2O (stereo partly specified),"inconclusive: 7.94 µM [activator, partial curve]",
Nc1ccc(Cl)cc1C(=O)c1ccccc1Cl,"inconclusive: 22.4 µM [activator, partial curve, poor fit]",
